This is an account of results in ChEMBL document CHEMBL5606460, “ASAP - DENV-2 NS2B-NS3 protease fluorescence single point” (2024).

In all, about 2,000 compounds went through this assay and about 110 (5.5%) showed an effect of 50% or more. The list shows a part of the results.

In this assay the target is Genome polyprotein (dengue virus type 2) (UniProt P29990).
The mark [1] stands for this setting: Thailand/16681/1984, Concentration 25.0 uM, Number of replicates 1.0.

In the case of `CC(C)(C)OC(=O)N[C@H](C(=O)Nc1cccc(CN)c1)c1ccc(OCc2ccccc2)cc1`, the inhibition is -1.9% (Thailand/16681/1984, Concentration 49.5 uM, Number of replicates 2.0, Standard deviation 1.7551947166429631 %); 3.23% (Thailand/16681/1984, Concentration 99.01 uM, Number of replicates 2.0, Standard deviation 0.05489981052071439 %); 15% (Thailand/16681/1984, Concentration 198.0 uM, Number of replicates 2.0, Standard deviation 0.6374768156986698 %).

As to `O=Cc1ccc(N2CCC(C(=O)NCC(=O)NCc3ccccc3)CC2)cc1`, the inhibition under setting [1] was 14%.

Take `COc1ccc(C(=O)C2CCN(C(=O)C3CCN(c4ccc(C=O)cc4)CC3)CC2)cc1`: the inhibition under setting [1] turned out to be 10.3%.

`O=Cc1ccc(N2CCC(C(=O)NCc3ccc(-c4ccccn4)cc3)CC2)cc1`: under setting [1], the inhibition came out at 6.55%.

`O=C(NCc1nnc[nH]1)c1ccn([C@H]2CCCNC2)n1`: the inhibition is, setting by setting: (Thailand/16681/1984, Concentration 49.5 uM, Number of replicates 2.0, Standard deviation 0.8091731298758035 %) -2.94%; (Thailand/16681/1984, Concentration 99.01 uM, Number of replicates 2.0, Standard deviation 7.216634091490219 %) 1.81%; (Thailand/16681/1984, Concentration 198.0 uM, Number of replicates 2.0, Standard deviation 0.9732760992378204 %) -4.06%.

As to `N#Cc1cccc(-c2nc3c(C(=O)Nc4ccccc4)cc(Cl)cc3[nH]2)c1`, the inhibition runs as follows: (Thailand/16681/1984, Concentration 99.5 uM, Number of replicates 2.0, Standard deviation 7.963520922762683 %) 14.4%; (Thailand/16681/1984, Concentration 295.6 uM, Number of replicates 2.0, Standard deviation 58.7613445679075 %) 56.6%.

Take `CNC(=O)c1cc(Cl)ccc1NS(=O)(=O)c1ccc(OC2CCCC2)nc1`: the inhibition reads like this: (Thailand/16681/1984, Concentration 49.5 uM, Number of replicates 2.0, Standard deviation 1.7218457698776273 %) 4.61%; (Thailand/16681/1984, Concentration 99.01 uM, Number of replicates 2.0, Standard deviation 2.770217269330824 %) 9.09%; (Thailand/16681/1984, Concentration 198.0 uM, Number of replicates 2.0, Standard deviation 2.636140389197544 %) 19.8%.

In the case of `O=C(c1cc[nH]c(=O)c1)N1CCc2c(-c3nn[nH]n3)cccc21`, the inhibition reads like this: (Thailand/16681/1984, Concentration 49.5 uM, Number of replicates 2.0, Standard deviation 1.1797090662409355 %) 0.403%; (Thailand/16681/1984, Concentration 99.01 uM, Number of replicates 2.0, Standard deviation 2.199955320406661 %) 2.52%; (Thailand/16681/1984, Concentration 198.0 uM, Number of replicates 2.0, Standard deviation 2.365187741015073 %) 6.37%.

For `CCn1ncc(-c2ccccc2C(=O)Nc2cnn(C)c2)c1F`, the inhibition (Thailand/16681/1984, Concentration 49.5 uM, Number of replicates 2.0, Standard deviation 1.7362397615810676 %) is -3.37%; the inhibition (Thailand/16681/1984, Concentration 99.01 uM, Number of replicates 2.0, Standard deviation 3.5632406540879202 %) is -3.71%; the inhibition (Thailand/16681/1984, Concentration 198.0 uM, Number of replicates 2.0, Standard deviation 2.004108271976906 %) was -1.89%.

Turning to `CC(C)N(CCN1CCCCCC1)C(=O)C1CCN(c2ccc(C=O)cc2)CC1`, under setting [1], the inhibition came to 8.55%.

For the compound `Cc1ccc(Cl)cc1N1CCN(C(=O)C2CCN(c3ccc(C=O)cc3)CC2)CC1`, under setting [1], the inhibition was found to be 7.08%.

With `c1ccc2c([C@H]3CCN(Cc4cccn5nccc45)C3)c[nH]c2c1`, the inhibition was 2.85% (Thailand/16681/1984, Concentration 50.0 uM, Number of replicates 2.0, Standard deviation 0.44384694438167865 %); 6.29% (Thailand/16681/1984, Concentration 100.0 uM, Number of replicates 2.0, Standard deviation 0.10784569314446374 %); 8.99% (Thailand/16681/1984, Concentration 200.0 uM, Number of replicates 2.0, Standard deviation 0.2525425675781247 %).

In the case of `Cn1cc(NC(=O)c2ccccc2C(F)(F)F)c(-c2c[nH]c3ncccc23)n1`, the inhibition by setting is: (Thailand/16681/1984, Concentration 49.5 uM, Number of replicates 2.0, Standard deviation 2.0973225812936915 %) -1.12%; (Thailand/16681/1984, Concentration 99.01 uM, Number of replicates 2.0, Standard deviation 0.5651732227286548 %) -1.36%; (Thailand/16681/1984, Concentration 198.0 uM, Number of replicates 2.0, Standard deviation 1.6135892292538794 %) -0.338%.

On to `COC[C@@H](C)CNC(=O)c1cc(Cl)ccc1NS(=O)(=O)c1ccc(Oc2ccccc2Cl)cc1`, for which the inhibition was 82.2% (Thailand/16681/1984, Concentration 49.5 uM, Number of replicates 2.0, Standard deviation 0.2816677257730929 %); 83.8% (Thailand/16681/1984, Concentration 99.01 uM, Number of replicates 2.0, Standard deviation 0.03025941418209339 %); 76.9% (Thailand/16681/1984, Concentration 198.0 uM, Number of replicates 2.0, Standard deviation 0.3452939569842909 %).

Take `COc1cc(COc2cccnc2F)nc(N2CCNCC2)n1`: the inhibition is -1.13% (Thailand/16681/1984, Concentration 49.5 uM, Number of replicates 2.0, Standard deviation 0.982901153958829 %); -0.42% (Thailand/16681/1984, Concentration 99.01 uM, Number of replicates 2.0, Standard deviation 1.0780206061954283 %); -1.56% (Thailand/16681/1984, Concentration 198.0 uM, Number of replicates 2.0, Standard deviation 1.1287509765069297 %).

In the case of `CNC(=O)c1ccc(NS(=O)(=O)c2ccc(OC)cc2)cc1`, the inhibition by setting is: (Thailand/16681/1984, Concentration 49.5 uM, Number of replicates 2.0, Standard deviation 2.0586402248038174 %) 1.38%; (Thailand/16681/1984, Concentration 99.01 uM, Number of replicates 2.0, Standard deviation 1.3136382901588135 %) 0.82%; (Thailand/16681/1984, Concentration 198.0 uM, Number of replicates 2.0, Standard deviation 0.9863992791649605 %) 2.03%.

In the case of `O=C1NCC[C@@H]1CNS(=O)(=O)c1ccc(Oc2ccccc2Cl)cc1`, the inhibition was -0.264% (Thailand/16681/1984, Concentration 49.5 uM, Number of replicates 2.0, Standard deviation 4.002985951466216 %); 0.42% (Thailand/16681/1984, Concentration 99.01 uM, Number of replicates 2.0, Standard deviation 4.526482853100752 %); 2.4% (Thailand/16681/1984, Concentration 198.0 uM, Number of replicates 2.0, Standard deviation 4.411103663666057 %).

On to `COc1cccc(C(=O)N2CCN(C(=O)C3CCN(c4ccc(C=O)cc4)CC3)CC2)c1`, for which the inhibition under setting [1] worked out at 10.9%.

As to `CSc1cccc(CN(C)C(=O)C2CCN(c3ccc(C=O)cc3)CC2)c1`, the inhibition under setting [1] came out at 12.8%.

As for `O=Cc1ccc(N2CCC(C(=O)Nc3cccc(I)c3)CC2)cc1`, the inhibition under setting [1] is 12%.

In the case of `Cc1cc(CO)c2cccc(Nc3n[nH]c4ccc(C#N)cc34)c2n1`, the inhibition stood at 7.32% (Thailand/16681/1984, Concentration 49.95 uM, Number of replicates 2.0, Standard deviation 0.3272035180790509 %) and 15.2% (Thailand/16681/1984, Concentration 99.9 uM, Number of replicates 2.0, Standard deviation 0.2891408677762565 %).

Consider `O=Cc1ccc(N2CCC(C(=O)N3CCC(N4CCc5ccccc5C4)CC3)CC2)cc1`, for which, under setting [1], the inhibition was 13.5%.
